PMC4336329 (PLoS ONE, 2015)
Among all 310,000 compounds or so, about 2,200 (0.71%) showed an effect of 50% or more. Effects have a minus sign here. Some of the results follow.

The molecules below were run against human ether-à-go-go-related gene (hERG) potassium channel (human, UniProt Q12809) (assay: primary screen, population patch clamp on CHO cells stably expressing hERG).
Chain of human ether-à-go-go-related gene (hERG) potassium channel (Q12809 whole entry, looked up): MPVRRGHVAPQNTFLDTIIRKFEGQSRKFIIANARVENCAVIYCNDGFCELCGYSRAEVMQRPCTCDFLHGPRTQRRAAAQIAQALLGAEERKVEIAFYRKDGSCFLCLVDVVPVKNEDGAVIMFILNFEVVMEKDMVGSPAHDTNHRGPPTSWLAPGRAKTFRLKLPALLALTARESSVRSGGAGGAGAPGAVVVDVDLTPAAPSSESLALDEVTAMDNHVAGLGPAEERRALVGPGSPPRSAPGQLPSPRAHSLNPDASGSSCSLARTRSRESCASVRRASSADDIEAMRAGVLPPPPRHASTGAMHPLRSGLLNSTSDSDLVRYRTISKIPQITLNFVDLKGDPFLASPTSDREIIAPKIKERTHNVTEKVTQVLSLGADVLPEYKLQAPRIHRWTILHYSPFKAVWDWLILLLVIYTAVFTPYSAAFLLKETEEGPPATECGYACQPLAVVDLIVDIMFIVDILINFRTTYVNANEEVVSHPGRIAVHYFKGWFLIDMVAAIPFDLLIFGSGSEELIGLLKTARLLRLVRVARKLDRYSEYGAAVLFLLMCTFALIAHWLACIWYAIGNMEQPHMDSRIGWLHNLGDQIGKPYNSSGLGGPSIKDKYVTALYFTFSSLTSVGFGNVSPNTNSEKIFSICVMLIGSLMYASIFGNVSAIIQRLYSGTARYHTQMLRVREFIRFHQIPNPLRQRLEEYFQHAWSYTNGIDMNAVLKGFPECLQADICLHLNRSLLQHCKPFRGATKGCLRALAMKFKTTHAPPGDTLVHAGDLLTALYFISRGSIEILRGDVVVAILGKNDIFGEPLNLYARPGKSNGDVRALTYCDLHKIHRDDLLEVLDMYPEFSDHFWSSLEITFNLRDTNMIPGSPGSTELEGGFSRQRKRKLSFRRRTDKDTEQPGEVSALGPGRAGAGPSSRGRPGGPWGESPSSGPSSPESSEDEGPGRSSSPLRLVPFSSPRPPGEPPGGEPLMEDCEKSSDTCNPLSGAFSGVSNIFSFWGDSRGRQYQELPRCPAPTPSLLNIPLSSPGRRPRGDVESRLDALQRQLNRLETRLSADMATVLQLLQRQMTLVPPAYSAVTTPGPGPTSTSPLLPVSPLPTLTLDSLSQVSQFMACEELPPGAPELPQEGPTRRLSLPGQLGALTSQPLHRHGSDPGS

Row | SMILES | hERG current change (%, negative = inhibition) at 1uM [%]
1 | O=C(NCC1(O)CCCCC1)C1CCC(=O)N(CCc2ccccc2)C1 (centres unmarked) | 21.7
2 | CC(C)(C)NC(=O)c1ccccc1NC(=O)C1CCCO1 (centres unmarked) | 1.7
3 | O=C(NCCN1C(=O)S/C(=C\c2ccc(F)cc2)C1=O)C1CCN(S(=O)(=O)c2cccs2)CC1 | 7.66
4 | Cc1ccc(Cn2c(-n3nc(C)cc3C)nc3c2c(=O)[nH]c(=O)n3C)cc1 | -0.423
5 | CN(C(=O)C(=O)c1cn(CC(=O)N2CCCC2)c2ccccc12)C1CCCCC1 | 5.88
6 | Cn1nnc(NC(=O)c2ccc([N+](=O)[O-])cc2Cl)n1 | 13
7 | Cc1ccc(/C=C2/C(=O)N(c3ccccc3)C(=S)N2C)o1 | 4.09
8 | CCCCn1c(N)c(N(CC(C)C)C(=O)C2CCN(S(=O)(=O)c3ccc(C)cc3)CC2)c(=O)[nH]c1=O | 11.2
9 | C[C@@H](C(=O)NCCc1c[nH]c2ccccc12)[C@@H]1C[C@@]1(C)[C@@H](NC(=O)OCc1ccccc1)c1ccccc1 | 13.1
10 | CCOc1ccc(CNC(=O)C2CCN(S(=O)(=O)CC)CC2)cc1OC | 9.45
11 | COc1cc([N+](=O)[O-])cc2sc(NC(=O)C(C)(C)C)nc12 | 9.58
12 | COc1cccc(CNc2ccc3c(c2)ncn3C)c1OC | 18.4
13 | CCOc1cccc(=[NH+]C2CCCCC2)c2c(C)n(C)c(C)c12.[O-][Cl+3]([O-])([O-])[O-] | -42.3
14 | COc1ccc(/C=C2\CCn3c2nc2cc(C(=O)O)ccc2c3=O)cc1OC | 8.01
15 | CN(CCC1CCOCC1)C(=O)CC1C(=O)NCCN1Cc1ccccc1F (centres unmarked) | 3.78
16 | C=CCn1c(SCC(=O)Nc2cc(C)c(Cl)cc2OC)nnc1-c1ccco1 | -7.62
17 | CC(C)c1cc(C(=O)NNC(=S)NC2CCCCC2)cs1 | 2.56
18 | CCc1ccc(-c2nc(CN3CCCC(C(=O)NCCc4ccc(OC)c(OC)c4)C3)c(C)o2)cc1 (centres unmarked) | -3.23
19 | CCn1c(CNc2ccc(C)cc2)nnc1SCC(N)=O | 20
20 | Cc1ccc(-n2ncc3c2CC(C)(C)CC3NC(=O)CCc2cnn(C)c2)cc1 (centres unmarked) | -16.5
21 | O=C(O)/C=C/C(=O)NNC(=O)c1cc(-c2ccccc2)n[nH]1 | 14.4
22 | CON/C=C(\C=Nc1ccc(F)cc1)c1ncc(C(F)(F)F)cc1Cl | 9.23

Row | SMILES | hERG current change (%, negative = inhibition) at 1uM [%]
23 | COC(=O)c1cn(CC(=O)N2C(C)CCCC2C)c2ccccc12 (centres unmarked) | 13.9
24 | O=C(CSc1nc2[nH]ncc2c(=O)[nH]1)NCc1ccccc1Cl | 7.42
25 | Cc1ccc(-n2c(O)c(C=NC3CCS(=O)(=O)C3)c3ccccc3c2=O)cc1 (centres unmarked) | 9.2
26 | C(=N\NC1=NCCCCC1)/c1c[nH]c2ccccc12.Cl | 11.4
27 | CC(=O)N(C)c1ccc(NS(=O)(=O)c2cccc3nsnc23)cc1 | 14.7
28 | CCOC(=O)COc1ccc2ccccc2c1/C=C/[N+](=O)[O-] | 8.95
29 | O=C(NCC(c1cccnc1)N1CCN(c2ccc(F)cc2)CC1)c1ccccc1 (centres unmarked) | 3.43
30 | Cc1ccc(OCC(=O)Nc2ccc(NC(=O)c3ccccc3)cc2)cc1C | 17.2
31 | COc1ccc(NC(=O)N2CCC(Cc3ccccc3)CC2)cc1 | 6.74
32 | O=c1[nH]c(=S)n(-c2ccccc2)c(O)c1C=NCCN1CCNCC1 | 14.5
33 | O=C(CSc1nnnn1-c1ccc(F)cc1)NCc1cccs1 | 11.9
34 | CC(=O)N1CCN(c2ccc(NC(=O)c3ccc(OCc4ccccc4)cc3)cc2)CC1 | -5.28
35 | CCC1(C)Cc2nc3sc(C(=O)O)c(N)c3cc2CO1 (centres unmarked) | 7.64
36 | CCOC(=O)c1cnc2c(Cl)cc(Cl)cc2c1NCCOCCO | 2.33
37 | CSC[C@H](NC(=O)COc1cc2c(c3oc(=O)cc(C)c13)CCC(C)(C)O2)C(=O)O | 14.3
38 | Cc1ccc(C(C)C)c(OCCN2C(=O)NC(C)(C)C2=O)c1 | 1.55
39 | COc1ccc(Cl)cc1NC(=O)Cn1c(C)csc1=O | 10.2
40 | COc1cccc(/C=N/n2c(=S)n(C)c3cc(C)c(C)cc32)c1OC | 4
41 | Cc1ccc(NC(=O)N2CCCC2C(=O)NCC2CCCO2)cc1 (centres unmarked) | 9.17
42 | O=C(Cn1c(C(=O)N2CCN(C3CCCC3)CC2)cc2sccc21)c1ccccc1 | -51
43 | NC(=O)N/N=C/c1c(F)cccc1F | 7.88
44 | CCOC(=O)C1CCN(C(=O)/C=C/c2cccs2)CC1 | 6.2

Row | SMILES | hERG current change (%, negative = inhibition) at 1uM [%]
45 | COc1ccc(NC(=O)C2CCCN2C(=O)NC2CCCCC2)c(OC)c1 (centres unmarked) | 12.7
46 | O=C(c1ccc(Br)o1)N(Cc1ccccc1)c1ccccn1 | 11.7
47 | O=C(CN(Cc1ccc(F)cc1)C(=O)CCC(=O)Nc1nccs1)NCc1ccccc1 | -7.72
48 | CCC(Sc1nc(C)cc(C)n1)C(=O)Nc1nccs1 (centres unmarked) | 14.3
49 | CCc1noc(C)c1C(=O)N1CCCC(C(=O)c2cc(F)ccc2F)C1 (centres unmarked) | -9.07
50 | O=C(COc1cc(Cl)c(Cl)cc1Cl)Nc1ccc([N+](=O)[O-])cc1Cl | 13
51 | CC/C(=C\C=C\[C@@H]1C=C[C@@H]2CCC[C@H]2[C@@H]1C(=O)c1ccc[nH]1)[C@@H]1O[C@@H]([C@@H](C)C(=O)[O-])CC[C@@H]1C.[Na+] | 6.55
52 | O=C(c1ccco1)N1CCN(Cc2ccc(Cl)cc2)CC1 | 7.26
53 | O=C(NNC(=O)c1ccccc1O)c1ccc(Cl)c(S(=O)(=O)N2CCCCC2)c1 | 2
54 | CN(C)S(=O)(=O)n1cnc([C@@H]2[C@H]3C(=O)OC[C@@H]3C[C@@]23N=CN(Cc2ccccc2)C3=O)c1 | 1.09
55 | COc1ccc(C(=O)NCc2nnc(SCC(=O)N3CCCCC3)o2)cc1OC | 6.85
56 | CC(=O)Nc1ccc(S(=O)(=O)c2ccc([N+](=O)[O-])cc2)cc1 | -1.5
57 | CCOC(=O)CCc1c(C)nc2cc(-c3ccc(Cl)cc3)[nH]n2c1=O | 5.85
58 | Cc1nnc(NC(=O)CSc2ncnc3c2cnn3-c2ccccc2C)s1 | 4.81
59 | COCCn1nnnc1C(c1ccc(C(F)(F)F)cc1)N1CCOCC1 (centres unmarked) | 18.2
60 | CCN(CC)c1ccc(NS(=O)(=O)c2ccc(OC)cc2)cc1 | 3.24
61 | O=[N+]([O-])c1ccc(SCCc2ccccn2)cc1 | 0.0591
62 | O=[N+]([O-])c1ccc(N2CCN(S(=O)(=O)c3ccccc3)CC2)cc1NCc1ccco1 | 12.4
63 | COc1ccc(CN2CCc3ccccc3C2)c(OC)c1OC | -3.44
64 | CCOc1ccccc1Nc1nc(-c2sc(NC(=O)c3cccc(Cl)c3)nc2C)cs1 | 13.4
65 | CC1(C)CC(=O)C2=C(C1)Nc1ccccc1NC2c1ccc(F)c(F)c1 (centres unmarked) | 3.54
66 | COc1ccc(OC)c(CCNC(=O)C2CCN(c3nnc(-n4cccc4)s3)CC2)c1 | 2.09

Row | SMILES | hERG current change (%, negative = inhibition) at 1uM [%]
67 | COC(=O)N/N=C/c1cc(N=Nc2ccccc2)ccc1O | 4.67
68 | Cc1c(NS(C)(=O)=O)c(=O)n(-c2ccccc2)n1C | -4.72
69 | CC1=C(C(=O)OCc2ccccc2)C(c2cccc(Br)c2)NC(=O)N1 (centres unmarked) | 15.5
70 | C[n+]1ccccc1/C=C/c1ccc([N+](=O)[O-])cc1.[I-] | 4.84
71 | CSc1ncc(C(=O)Nc2ccc(Br)cn2)c(C)n1 | 2.32
72 | CCOc1ccc(S(=O)(=O)NCCN2CCOCC2)c2ccccc12 | 2.21
73 | COc1ccc(C(=O)N2CCN(c3ccc([N+](=O)[O-])c(NCCc4ccc(OC)c(OC)c4)c3)CC2)cc1 | 10.8
74 | CC(=O)Nc1cccc(C(=O)OCN2C(=O)c3ccccc3C2=O)c1 | 4.95
75 | COc1ccc(CNC(=O)CN2C(=O)CSc3ccc(S(=O)(=O)N4CCOCC4)cc32)cc1 | 2.8
76 | CC(C)c1ccc(CNc2cc(N3CCCC3)ccc2[N+](=O)[O-])cc1 | 16.4
77 | CS(=O)(=O)N1CCN(c2ccc([N+](=O)[O-])cc2F)CC1 | 4.72
78 | CCO[C@H]1OC(C(=O)NCc2nc3ccccc3[nH]2)=C[C@@H](c2ccccc2)[C@@H]1CCCO | 2.09
79 | CCOc1ccc(Cn2c(=O)sc3ccccc32)cc1OC | 3.79
80 | O=C1c2ccccc2C(=O)c2c(Nc3ccc(CCO)cc3)ccc(O)c21 | 11
81 | O=C(c1ccoc1)N1CCCC(N2CCN(c3cccc(Cl)c3)CC2)C1 (centres unmarked) | -11.9
82 | CCn1cc(C(=O)NC2CCCCCC2)c2cc(OC)c(OC)cc2c1=O | 7.84
83 | CCn1c(C)nnc1SCC(=O)Nc1ccc(N2CCOCC2)cc1 | -4.2
84 | O=C(c1ccco1)N1CCCC(N2CCN(c3ccccc3F)CC2)C1 (centres unmarked) | 3.94
85 | CCOc1ccc2[nH]c3c(=O)n(CCC4=CCCCC4)cnc3c2c1 | 11
86 | N#CC1=C(N)Oc2n[nH]c(-c3cccs3)c2C1c1cccs1 (centres unmarked) | 11.1
